Assay results reported in PubChem BioAssay AID588591 (National Center for Advancing Translational Sciences (NCATS), 2011).
In all, about 390,000 compounds went through this assay and about 4,700 (1.2%) were called active. Inconclusive means that the source gave no clear call. Such entries were picked first, then a sample of the others. Calls come from the whole dose curve; as a rule, active = well fitted inhibition curve with a large enough effect; inconclusive = small, poorly fitted or top-dose-only effect, or another doubt; inactive = no such curve, though single readings can be large or run the other way. Where the call is inconclusive, the potency comes from a doubtful curve fit.

Molecular target: DNA polymerase eta (Homo sapiens) (UniProt Q9Y253)
Test: qHTS for Inhibitors of Polymerase Eta
Conditions: recombinant Pol eta, fluorescent DNA replication assay; series mostly up to 114 µM; activity change, negative = inhibition: at the top concentration
How it was run: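 Fluorescent replication assay: 50 nM final substrate added after a 15 min room-temperature compound preincubation with 10 nM enzyme. Signal taken at 0 min and again at 10 min.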
% is set by controls: 0 for no effect and ±100 for the full control effect; potency is the fitted concentration of half-maximal effect; tags give direction and shape of the fitted curve.

Sequence of UniProt Q9Y253 (Q9Y253 whole entry, looked up): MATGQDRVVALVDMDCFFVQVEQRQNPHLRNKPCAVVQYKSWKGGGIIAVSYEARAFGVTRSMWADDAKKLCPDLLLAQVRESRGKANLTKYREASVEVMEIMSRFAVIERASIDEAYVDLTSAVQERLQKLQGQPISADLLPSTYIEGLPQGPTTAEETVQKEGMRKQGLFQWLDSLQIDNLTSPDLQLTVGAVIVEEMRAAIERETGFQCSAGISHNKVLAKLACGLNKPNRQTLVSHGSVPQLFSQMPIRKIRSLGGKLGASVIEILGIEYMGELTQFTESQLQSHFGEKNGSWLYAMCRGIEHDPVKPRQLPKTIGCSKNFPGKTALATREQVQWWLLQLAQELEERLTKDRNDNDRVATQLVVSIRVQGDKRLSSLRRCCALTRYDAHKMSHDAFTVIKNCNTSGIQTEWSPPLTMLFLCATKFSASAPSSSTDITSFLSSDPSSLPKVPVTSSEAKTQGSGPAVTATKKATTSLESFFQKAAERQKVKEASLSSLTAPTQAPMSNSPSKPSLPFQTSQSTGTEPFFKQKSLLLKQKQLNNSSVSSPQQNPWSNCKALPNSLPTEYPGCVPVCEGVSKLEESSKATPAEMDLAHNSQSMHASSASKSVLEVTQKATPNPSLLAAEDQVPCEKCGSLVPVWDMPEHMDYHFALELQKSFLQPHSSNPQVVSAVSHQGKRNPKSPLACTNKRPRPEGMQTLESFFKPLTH

**Q.** O=C1NC[C@@H](Cc2cccc3ccccc23)N(CCc2cc(C(F)(F)F)cc(C(F)(F)F)c2)C1=O was tested. Which Potency did it give?
**A.** inconclusive: 39.8 µM [inhibitor, partial curve, poor fit]

**Q.** Which Potency does the source give for COc1cc(OC)c2c(C)c(CC(=O)NCc3ccccc3OC)c(=O)oc2c1 here?
**A.** active: 28.2 µM

**Q.** How did the “activity change, negative = inhibition” value turn out when CCOc1ccc(NC(=O)CSc2nc3cc(C(=O)NCC4CCCO4)ccc3c(=O)n2CC2CCCO2)cc1 (centres undefined) was run?
**A.** inactive: -12.1%

**Q.** COc1cccc2c1C(=O)c1c(O)c3c(c(O)c1C2=O)CC(O)(C(C)=O)CC3OC1CC(N(C)C)C(O)C(C)O1 (centres undefined) was tested. Which Potency did it give?
**A.** active: 11.2 µM

**Q.** CCN(CC)c1nn2c(=O)c(C(=O)NCc3ccccc3Br)cnc2s1 was tested. Which “activity change, negative = inhibition” value did it give?
**A.** inactive: -8.73%

**Q.** With Cn1nc(C(=O)NCc2ccccc2Cl)c2c1-c1ccccc1SC2 as the compound, how does the “activity change, negative = inhibition” value read?
**A.** inactive: -12%

**Q.** With COc1cccc2c3cccc(OC)c3c3[nH]cnc3c12 as the compound, how does the Potency read?
**A.** inconclusive: 35.5 µM [inhibitor, partial curve, poor fit]

**Q.** For CCc1ccc(C(=O)/C=C/c2ccc([N+](=O)[O-])o2)cc1, which Potency is on record?
**A.** inconclusive: 15.8 µM [inhibitor, full curve, poor fit]

**Q.** How did the Potency turn out when O=c1nc(Nc2ccccc2)sc2ccc([N+](=O)[O-])cc12 was run?
**A.** active: 15.8 µM

**Q.** Which Potency does the source give for O=C1C=CC(=O)N1Cc1ccncc1 here?
**A.** inconclusive: 17.8 µM [inhibitor, partial curve, poor fit]

**Q.** With O=[N+]([O-])c1ccc(Sc2cc[n+]([O-])c3ccccc23)c([N+](=O)[O-])c1 as the compound, how does the Potency read?
**A.** inconclusive: 56.2 µM [inhibitor, partial curve, poor fit]

**Q.** With COc1cc(OC)cc(C(=O)Nc2cccc(-c3cn4ccsc4n3)c2)c1 as the compound, how does the “activity change, negative = inhibition” value read?
**A.** inactive: -13.4%

**Q.** CSc1oc(-c2ccco2)nc1S(=O)(=O)c1ccccc1 was tested. Which “activity change, negative = inhibition” value did it give?
**A.** inactive: 3.47%

**Q.** With CN1C(=O)c2ccccc2Sc2ccc(NC(=O)N3CCN(c4cccc(Cl)c4)CC3)cc21 as the compound, how does the “activity change, negative = inhibition” value read?
**A.** inactive: -7.74%

**Q.** How did the Potency turn out when O=C1Nc2ccccc2/C1=N\N=C\c1ccc(O)c(O)c1 was run?
**A.** active: 3.16 µM

**Q.** How did the Potency turn out when N#CC1=C(N)C(C#N)(C#N)C(c2cccnc2)C2CC(c3ccccc3)CC=C12 (centres undefined) was run?
**A.** inconclusive: 35.5 µM [inhibitor, single point]

**Q.** Which Potency does the source give for C=CCn1c(SCC(=O)Nc2nnc(C)s2)nnc1C1CC1 here?
**A.** inconclusive: 31.6 µM [inhibitor, single point]

**Q.** With CCn1c(C)nc2cc(C(=O)OC(C(F)(F)C(F)F)C(F)(F)C(F)F)ccc21 as the compound, how does the Potency read?
**A.** inconclusive: 44.7 µM [inhibitor, partial curve, poor fit]

**Q.** For NC1=CC(=O)C(=O)c2cccnc21, which Potency is on record?
**A.** active: 8.91 µM

**Q.** With CCCCCCCNC(=O)C1(CC2CC(c3ccccc3)=NO2)CCN(C(=O)OC(C)(C)C)CC1 (centres undefined) as the compound, how does the Potency read?
**A.** inconclusive: 79.4 µM [inhibitor, partial curve, poor fit]

**Q.** How did the Potency turn out when CCCc1cc(-n2ccnc2)n2c(nc3ccccc32)c1C#N was run?
**A.** inconclusive: 28.2 µM [inhibitor, partial curve]

**Q.** For CSc1ncccc1C(=O)OCC(=O)NC12CC3CC(CC(C3)C1)C2, which Potency is on record?
**A.** inconclusive: 44.7 µM [inhibitor, partial curve, poor fit]

**Q.** For O=C(c1ccc(-c2ccccc2)cc1)N1CCN(C(=O)c2ccco2)CC1, which Potency is on record?
**A.** inconclusive: 25.1 µM [inhibitor, partial curve, poor fit]

**Q.** With O=C(CCS(=O)(=O)c1ccc(Cl)cc1)Nc1ccccc1Br as the compound, how does the “activity change, negative = inhibition” value read?
**A.** inactive: -13.5%

**Q.** With N#CC1=C(SCC(=O)c2ccc(Br)cc2)NC2=C(C(=O)CCC2)C1c1ccco1 (centres undefined) as the compound, how does the Potency read?
**A.** inconclusive: 39.8 µM [inhibitor, partial curve, poor fit]

**Q.** For CC(C)n1c(=O)c2oc3ccccc3c2n(CC(=O)Nc2ccccc2Cl)c1=O, which “activity change, negative = inhibition” value is on record?
**A.** inactive: 6.22%

**Q.** How did the Potency turn out when CC1=CC(=C(C#N)C#N)C=C(C)N1Cc1ccccc1 was run?
**A.** inconclusive: 89.1 µM [inhibitor, partial curve, poor fit]

**Q.** Which Potency does the source give for CN(C)c1ccc2nc3c(=O)[nH]c(=O)nc-3n(CC(O)C(O)C(O)CO)c2c1 (centres undefined) here?
**A.** inconclusive: 56.2 µM [inhibitor, partial curve, poor fit]

**Q.** With Cc1ccccc1Nc1scc(-c2ccc(Cl)cc2)[n+]1-c1ccccc1C as the compound, how does the Potency read?
**A.** inconclusive: 100 µM [inhibitor, partial curve, poor fit]

**Q.** For CCCc1nc(-c2ccc(-c3ccc(F)cc3)cc2)no1, which Potency is on record?
**A.** inconclusive: 4.47 µM [inhibitor, partial curve, poor fit]

**Q.** CCOC(=O)Cn1c(=O)oc2cc(S(=O)(=O)Nc3ccccc3F)ccc21 was tested. Which “activity change, negative = inhibition” value did it give?
**A.** inactive: -7.4%

**Q.** O=C(CCNC(=O)c1ccc(Br)cc1)NCc1ccco1 was tested. Which “activity change, negative = inhibition” value did it give?
**A.** inactive: -12%

**Q.** For Cc1nn(-c2ccccc2)c(C)c1C=O, which “activity change, negative = inhibition” value is on record?
**A.** inactive: -4.37%

**Q.** Which Potency does the source give for O=C(COc1ccccc1)Nc1nc(-c2cccnc2)cs1 here?
**A.** inconclusive: 25.1 µM [inhibitor, partial curve, poor fit]

**Q.** CC(C)Nc1nnc(SCC(=O)Nc2ccc3c(c2)C(=O)c2ccccc2C3=O)s1 was tested. Which Potency did it give?
**A.** inconclusive: 12.6 µM [inhibitor, partial curve]

**Q.** With CCOc1ccccc1N1CCN(c2nc3ccccc3nc2C(C#N)C(=O)OC)CC1 (centres undefined) as the compound, how does the Potency read?
**A.** inconclusive: 14.1 µM [inhibitor, partial curve, poor fit]

**Q.** With CC(=O)N1CCOc2ccc(S(=O)(=O)NCC3CCC(C(=O)Nc4ccc(C)cn4)CC3)cc21 (centres undefined) as the compound, how does the “activity change, negative = inhibition” value read?
**A.** inactive: -2.27%

**Q.** Which “activity change, negative = inhibition” value does the source give for O=C(Nc1cc(C(=O)N2CCN(c3ccccc3)CC2)ccc1Cl)c1cccs1 here?
**A.** inactive: -19.5%

**Q.** Which Potency does the source give for COc1cccc(CNC(=O)Cc2ccc(NC(=O)C3=C(C)OCCS3)cc2)c1 here?
**A.** inconclusive: 25.1 µM [inhibitor, single point]

**Q.** With CCc1ccc(CNC(=O)C2CCCN(c3nnc(C)c4c(C)n(-c5ccc(OC)cc5)nc34)C2)cc1 (centres undefined) as the compound, how does the Potency read?
**A.** inconclusive: 100 µM [inhibitor, single point]

**Q.** Which Potency does the source give for O=C(CCN1C(=O)S/C(=C\c2cccs2)C1=O)NC1=NCCS1 here?
**A.** inconclusive: 28.2 µM [inhibitor, partial curve]

**Q.** Cc1ccc(/C=N/NC(=O)C2(O)c3ccccc3-c3ccccc32)o1 was tested. Which Potency did it give?
**A.** inconclusive: 22.4 µM [inhibitor, partial curve, poor fit]

**Q.** For CCOC(=O)Cc1nc2cc(Cl)ccc2o1, which “activity change, negative = inhibition” value is on record?
**A.** inactive: -9.37%

**Q.** With C/C(=N\NC(=O)c1cc(O)ccc1O)c1cccc(NC(=O)c2ccc(Cl)cc2)c1 as the compound, how does the Potency read?
**A.** active: 22.4 µM
